Results from publication PMC12136788.
Some of the results follow.

B1: chr11:115359427:115359428:-_ENSMUSG00000020737_ENSMUST00000021083|mus_mus|motif|central (ssRNA)
RNA: GGGAGUUCUACAGUCCGACGAUCUCCCAAGCAUGGGACAACAAACAGACAGACAGAAGGACAGAGUUCCAACACAAGAAGCGGACCCAAGACCAGGCUGGACUUGCCGCCAGGGGGGUUUCUCCUGGAUGGCACUGGGGCUGGCAACAGAGGAUUGAGCAUCA
B2: 157159236_157160167_481_CDS_ENSG00000105993_ENST00000429029|human|control|control (ssRNA)
RNA: GGGAGUUCUACAGUCCGACGAUCAAAUGAAAAUGGGUCCCUUCCACCAAAAAAUUCCCUGAAGACAUCAUCUGGGUUACGGAAUGUGAAGCCAAAUUCAAAUGGACUGUCAAAAUGACUUCCACCUCCUCCUCCACCAUUUAACAACAGAGGAUUGAGCAUCA
B3: 59627789_59627909_950_CDS_ENSMUSG00000039585_ENSMUST00000128341|mouse|control|control (ssRNA)
RNA: GGGAGUUCUACAGUCCGACGAUCUAAGAGAGUUUUCUCAUUCAAAUCAGGCAAGCUACAUAAAUCAUCAAAGUCUUUCUGUUGAGGCUGUGGAAGAAAACCCCGCUCCAUCAUCCUGCGGCGUUCUUCGGUUACCCGUAGCCACAACAGAGGAUUGAGCAUCA
B4: chr7:54823571:54823572:-_ENSG00000132432_ENST00000352861|hu_mus|hu_hu_hu_mus_False|1_108 (ssRNA)
RNA: GGGAGUUCUACAGUCCGACGAUCUCCCAUUAUAGCAAAUCCUAUAGCUGUAGCCAUGGCAAUCUUCUGGAAUUCUUUUCUGUCGGGUUUGGUGCAUCUUUUAACCAGCCGAAUUGAGUCCUUUACAAACUGCCGGCUUGGCUCCAACAGAGGAUUGAGCAUCA
B5: chrX:140365796:140365797:-_ENSMUSG00000031285_ENSMUST00000033642|mus_mus|mus_mus_mus_hu_False|38_38 (ssRNA)
RNA: GGGAGUUCUACAGUCCGACGAUCCUUCUCAUUACUCAGUGCCUGCAAGGUUCUGGUUCGGUAGAAGCUACAGUGGGCGCUGUGAGUGGGGCUAGGCAGUCCAUUCAUCCGGGAGCCUCGCAUGUUCCUGGAUGUCUUAUCUCUCAACAGAGGAUUGAGCAUCA
B6: chr17:26875717:26875718:-_ENSG00000109103_ENST00000335765|hu_hu|FALSE|FALSE (ssRNA)
RNA: GGGAGUUCUACAGUCCGACGAUCCCGAAUCUUAAACCUGACAAAGUCGAUCUUGUAGAUAUUCUCCUCAGGGGAGCAGAGGUAGUCACCGGUGAUCCGCUGCAGCCCCAGCACGUCCUCCGGCCCGAUCGGCUGCUUCCUCUGCAACAGAGGAUUGAGCAUCA
B7: chr8:104447970:104447971:+_ENSG00000164934_ENST00000297579|hu_hu|hu_hu_hu_mus_False|48_68 (ssRNA)
RNA: GGGAGUUCUACAGUCCGACGAUCAUACACUUCCCUGCUUCGGCUCUUGUCCACAGGAAAGAUUCUAAUAGAUUUAUCAAAGCUGGCAGACACAAACUCCUUCCCAGUGGGAGAGUAGUCCACAUCAAGUACUGCAGACACGUGCAACAGAGGAUUGAGCAUCA
B8: chr5:37680062:37680063:+_ENSMUSG00000029121_ENSMUST00000031004|mus_hu|mus_mus_mus_hu_False|48_58 (ssRNA)
RNA: GGGAGUUCUACAGUCCGACGAUCUUUGGGUGUAGCUGGUACCUCGUACACAGGACCGUCAUACAUGCCCCUGGAAACACUAUGCAACCCGAAAACCUUAUUCCUGAUUUUGACGCGCUGGUACAGGUGCUCCGGGAACGCCUUCAACAGAGGAUUGAGCAUCA
B9: chr2:148695906:148695907:-_ENSG00000115947_ENST00000542387|hu_mus|FALSE|FALSE (ssRNA)
RNA: GGGAGUUCUACAGUCCGACGAUCCACCAUUUGAAAAUUAAAGGGCUCCUCUUCAUAUAUGUCAUUUAAAUGUUUCAUUGCUAUUAUAAGACAGAUUUCCAAGACUGACAGACCAUGUACAAUAUUCGCCUUAGAAUCCAAGCUCAACAGAGGAUUGAGCAUCA
B10: 112063845_112063965_144_3pUTR_ENSG00000091972_ENST00000383681|human|control|control (ssRNA)
RNA: GGGAGUUCUACAGUCCGACGAUCACCCCAUGGUUCUCGCUGAAGGUGACCAUGUUUUCUGGGCUUACAGCUUUCUUUUUCUGCCAUGUCACAAUGAGGGCUUCCUGGGCAUUUUGCAGAGAGCAUUUUAAGGAAGCAGGUGUGCAACAGAGGAUUGAGCAUCA
B11: chr1:151372964:151372965:+_ENSG00000159377_ENST00000290541|hu_hu|FALSE|FALSE (ssRNA)
RNA: GGGAGUUCUACAGUCCGACGAUCCUUCGAGCGCCGGCUGUACAUGGCCCUGGUCAGCCAUGAAUGAAUAGCUCUAGGACUAUAGCUGUGUCCAUCUCCCAGAAGCUCCUCAUCAAUCACCAUCUGGCCGAGAACUUGCUUCAACAACAGAGGAUUGAGCAUCA
B12: chr4:138453181:138453182:-_ENSG00000189184_ENST00000344876|hu_hu|FALSE|FALSE (ssRNA)
RNA: GGGAGUUCUACAGUCCGACGAUCGUUCCUCAUAAAUCCUGUAUUUCAAAUUCUUGCCCAGUACAUCGUGGUUGAAAGAUACUAUCAGAAGUGCAAAAACAAACCUAAAGUGCAUUUUAGCAUUCAUUUGGUGCAUUGGUCAGUCAACAGAGGAUUGAGCAUCA
B13: chr11:77340908:77340909:-_ENSG00000074201_ENST00000525064|hu_hu|hu_hu_hu_mus_True|98_98 (ssRNA)
RNA: GGGAGUUCUACAGUCCGACGAUCGUUUGGAUCCCUGGAUAAUGCAUGUAAACUAAUGGUGGGGUAUUCCAGUGAGAAUCCUAAUCCCGAACCAUCUAACCAGGACAGGCGGCUCUCCGCGAUGUAAAGCGUGCCGGUGCCGAGCAACAGAGGAUUGAGCAUCA
B14: chr3:9412954:9412955:+_ENSG00000134077_ENST00000452837|hu_mus|hu_hu_hu_mus_False|48_78 (ssRNA)
RNA: GGGAGUUCUACAGUCCGACGAUCGGUUGAUAUCUCUUCUUUGAUGGCUGGAUUUUCAUAAUAAUCUAAGAUAUGUGAAUCUGAAGUAUGGCUAGUGUGCUUUUUCUUACCAUCUUUCUCAUCUGCUUUGUCUCCUUGUCCACACAACAGAGGAUUGAGCAUCA
B15: 138127219_138128546_1353_CDS_ENSMUSG00000006205_ENSMUST00000006367|mouse|control|control (ssRNA)
RNA: GGGAGUUCUACAGUCCGACGAUCGACGUCAUUGGCAGUGACCACAGACUGUCCGUUGAUGCUGAUGAUGACGUCAUUUUCCUUGAGCCCUCCGGCUUCUGCCGGGGUGUCAGGAAUGACUUCAAUGAUAUAUGCCCCAGAGAGCAACAGAGGAUUGAGCAUCA
B16: 187084372_187086566_2436_3pUTR_ENSMUSG00000039318_ENSMUST00000069652|mouse|control|control (ssRNA)
RNA: GGGAGUUCUACAGUCCGACGAUCCGAUGGCCACUUUCAUCUUGCUCAGCAGGGACAGCAUGGUAUGAAGGCAGCAGACAGACUGUGGUUUGUCCAAAAUGUCUUUUUCCUUCGAAAGCCAAACACUUAGGAGCAGAGACAGUACAACAGAGGAUUGAGCAUCA
B17: chr2:121837063:121837064:+_ENSMUSG00000033411_ENSMUST00000110578|mus_mus|FALSE|FALSE (ssRNA)
RNA: GGGAGUUCUACAGUCCGACGAUCAUAUUAGUCAUUCAUAUAUUCUUAACUACCCAGUCUCUUGAUUUUUGAAGAUUUCACCUACAGUAGAAUAUUACAGAACAAAAUAUAAAUGCAUCUUUUAAAUGAAACUUAACAUGGACUCAACAGAGGAUUGAGCAUCA
B18: 72957518_72958873_763_3pUTR_ENSMUSG00000036698_ENSMUST00000044113|mouse|control|control (ssRNA)
RNA: GGGAGUUCUACAGUCCGACGAUCCAUCAAUAUUCAGCAUCAUUUUCCAAAGAGAAGGUCGGACGGACUGAUGGAAGCCAAACCACACUUCUCUGCCCCCACCCAGAGGGUUGGAACAGCCUUCAGAUGCAGUGAAGAAGGAACCAACAGAGGAUUGAGCAUCA
B19: 80652497_80652617_3157_CDS_ENSMUSG00000035051_ENSMUST00000038166|mouse|control|control (ssRNA)
RNA: GGGAGUUCUACAGUCCGACGAUCGUGGUGGCUCGUGAACAAGUGGAAGCAGACCCCUGAUGCGACUCGGCCAGCUCGGCCUUUCCUCUGCAGAGCGUUGGCCUGAGACACGAACGUGUCCUCUAGACUUUCCAUUCCUUUGCCCAACAGAGGAUUGAGCAUCA
B20: chr18:9257185:9257186:+_ENSG00000101745_ENST00000400020|hu_hu|FALSE|FALSE (ssRNA)
RNA: GGGAGUUCUACAGUCCGACGAUCUUGGAAUUGUUUGGUAUGUUCACAAAUGACAGAAGGCAUGCUACAUCUUCGAACUUCUAUGGUAGGUCUCCCCUCGCUUAUAAUUAGUUUAACAUCUUCUACAGAAGAUGACCUAAGAUGCAACAGAGGAUUGAGCAUCA
B21: chr5:79734569:79734570:+_ENSG00000039319_ENST00000505560|hu_hu|motif|central (ssRNA)
RNA: GGGAGUUCUACAGUCCGACGAUCACUUUCUAUAUCAAUGUAAUUAGAGUUGAAGCUAACCUGUGGAUCAGCUGUAGAAUCGGUAGCACAAGUGAUUGGAACAACGGUAUCUGCUGUGCUGGGUUCACUUUCUAUUGUAUCUGGCAACAGAGGAUUGAGCAUCA
B22: chr16:29586362:29586363:+_ENSMUSG00000038084_ENSMUST00000160597|mus_mus|FALSE|FALSE (ssRNA)
RNA: GGGAGUUCUACAGUCCGACGAUCGCCACCUCCAACAGCAGAUCCCAGUAUGAUAUAUCGAAGUUUUAAGAGUCUUGCAGCUAACCUUGCUGGCCAAAAGUUCCUGCGGGGCUGGUAGCCAUAUUUAAUUGGAGAAAGUUUCAACAACAGAGGAUUGAGCAUCA

Each binder was assayed against T1, UNK ZnF1-3 (human, UniProt Q9C0B0 31-174) (assay: nsRBNS (natural sequence RNA bind-n-seq); RBNS binding buffer (assumed for nsRBNS): 25 mM Tris pH 7.5, 150 mM KCl, 3 mM MgCl2, 0.01% Triton X-100, 500 ug/ml BSA, 20 U/ml SUPERase-In, 4 C; UNK is unkempt and MSI1 is Musashi-1; names of the RNAs are library labels; protein concentration not given here; high values mean tight binding).
T1 sequence: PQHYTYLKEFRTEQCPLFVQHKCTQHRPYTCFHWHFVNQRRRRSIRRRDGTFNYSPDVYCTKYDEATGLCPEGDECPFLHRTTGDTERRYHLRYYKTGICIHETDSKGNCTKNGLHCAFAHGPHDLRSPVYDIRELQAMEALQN

| Binder | binding signal [enrichment R] |
| --- | --- |
| B1 | 0.999 |
| B2 | 1.29 |
| B3 | 0.987 |
| B4 | 0.79 |
| B5 | 0.452 |
| B6 | 0.74 |
| B7 | 1.03 |
| B8 | 0.654 |
| B9 | 2.27 |
| B10 | 0.781 |
| B11 | 1.06 |
| B12 | 1.08 |
| B13 | 0.947 |
| B14 | 0.407 |
| B15 | 0.715 |
| B16 | 0.969 |
| B17 | 0.979 |
| B18 | 2.08 |
| B19 | 0.885 |
| B20 | 1.02 |
| B21 | 0.913 |
| B22 | 1.72 |
